Results as given in a compilation of properties of binary mixtures (doi:10.1007/s10953-013-9990-0).
The densities may have been worked out from excess volumes.

Experiment: xn = mol fraction of the nth substance listed
Conditions: 101 kPa

CCCC[n+]1cccc(C)c1.O=S(=O)([N-]S(=O)(=O)C(F)(F)F)C(F)(F)F + CCO
mass density [kg/m3]
Conditions | 298.15 K | 303.15 K | 308.15 K
x2 = 0 | – | 1410.1 | –
x2 = 0.0533 | – | – | 1398.7
x2 = 0.0924 | 1402.4 | 1397.9 | –
x2 = 0.1963 | 1386.5 | 1381.9 | 1377.2
x2 = 0.3011 | 1366.8 | 1362.2 | 1357.5
x2 = 0.3959 | 1344.9 | 1340.2 | 1335.5
x2 = 0.4982 | – | 1310.2 | 1305.5
x2 = 0.599 | – | – | 1266.8
x2 = 0.6829 | 1233 | 1228.3 | 1223.5
x2 = 0.7355 | 1198.5 | 1193.7 | –
x2 = 0.8008 | 1144.2 | 1139.4 | 1134.7
x2 = 0.8991 | 1021.8 | 1017.1 | 1012.4
x2 = 0.9436 | 938.9 | 934.3 | 929.7

CCO + CCCC[n+]1cccc(C)c1.O=S(=O)([N-]S(=O)(=O)C(F)(F)F)C(F)(F)F
x1 = 1
Conditions | mass density [kg/m3]
298.15 K | 785.4
303.15 K | 781.1
308.15 K | 776.8

CCO + CCCC[N+]1(C)CCCC1.O=S(=O)([N-]S(=O)(=O)C(F)(F)F)C(F)(F)F
x1 = 1
Conditions | mass density [kg/m3]
303.15 K | 781.1
308.15 K | 776.8

CCCC[N+]1(C)CCCC1.O=S(=O)([N-]S(=O)(=O)C(F)(F)F)C(F)(F)F + CCO
mass density [kg/m3]
Conditions | 298.15 K | 303.15 K | 308.15 K
x2 = 0 | 1394.5 | 1390.1 | 1385.7
x2 = 0.0586 | 1387.3 | 1382.9 | 1378.5
x2 = 0.1981 | 1367.1 | 1362.6 | 1358.1
x2 = 0.2834 | 1351.7 | 1347.2 | 1342.7
x2 = 0.4449 | 1313.8 | 1309.2 | 1304.6
x2 = 0.5133 | 1292.7 | 1288.1 | 1283.5
x2 = 0.6012 | 1259.1 | – | –
x2 = 0.7078 | – | 1198.4 | 1193.7
x2 = 0.7929 | 1139.1 | 1134.4 | –
x2 = 0.8997 | 1011.8 | 1007.2 | 1002.6
x2 = 0.9492 | – | 916 | –

CCCC[n+]1cccc(C)c1.O=S(=O)([N-]S(=O)(=O)C(F)(F)F)C(F)(F)F + CC(C)O
mass density [kg/m3]
Conditions | 298.15 K | 303.15 K | 308.15 K
x2 = 0 | 1414.7 | 1410.1 | 1405.5
x2 = 0.0534 | 1405.5 | 1400.9 | 1396.4
x2 = 0.1034 | – | 1391.8 | 1387.3
x2 = 0.1577 | – | 1381.1 | 1376.6
x2 = 0.1756 | 1381.9 | 1377.4 | 1372.8
x2 = 0.3062 | 1351.2 | 1346.5 | 1341.9
x2 = 0.3957 | 1325.2 | 1320.5 | 1315.8
x2 = 0.51 | 1283.5 | 1278.8 | 1274.2
x2 = 0.6002 | 1241.5 | 1237 | 1232.2
x2 = 0.7046 | 1177.9 | 1173.2 | 1168.4
x2 = 0.8006 | – | – | 1088.3
x2 = 0.8988 | – | 974.1 | 969.5
